The source gives no read counts; variants with many changes may rest on few reads.

The labels stand for the following.
B1: CPEB3 Ribozyme (parent)
chain: UAACAGGGGGCCACAGCAGAAGCGUUCACGUCGCAGCCCCUGUCAGAUUCUGGUGAAUCUGCGAAUUCUGCUGUAUAUCUC

In the data set the parent is B1. The data set can be described thus: self-cleavage, relative activity (ratio to wild type); higher = more cleavage; in vitro, sequencing. The procedure, abridged: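 Barcoded CPEB3 ribozyme mutants, produced by rounds of error-prone PCR, self-cleaved while being transcribed with T7 RNA polymerase for 5 hours at 37°C and during a subsequent 15 min DNase I step before EDTA was added. Sequencing of template-switched cDNA on Illumina gave cleaved and total reads, and DNA sequencing assigned barcodes to variants. Each variant's relative activity is its cleaved/total read fraction divided by the unmutated ribozyme's fraction, averaged across three batches. A variant needed a minimum of 5 reads.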
For the variant UAUCAGGGGGCCACAGCAGGAGCGUUCACGUCGCAGCCCCUGUCAGAAUCUGGAGAAUCUGCGGAUUCUGCUGUAUAUCUC [A3U A20G U48A U54A A64G], the self-cleavage was 0.25.
Take UAUCAGGGGGCCACAGCGGAAGCGUACACGUCGCAGCCCCUGUCAGAUUCUGGUGAAUCUGCGAAUUCUGCUGUAUAUCUC [A3U A18G U26A]: the self-cleavage came to 0.54.
The figure for UAUAAGGGGGCCACAGCAGGAGCGUUCACGUCGCAGCCCCUGUCAAUUUCUGGUGGACCUGCGAAUUCUGCUGUAUAUCUC [A3U C4A A20G G46A A47U A56G U58C] is 0.14.
Regarding UAUAAGGGGGCCACAGCAGAAGCGUUCACGUCGCAGUCCCUGUCAGAUCCUGGUGAAUCUGCGGAUCCUGCUGUAUAUCUC [A3U C4A C37U U49C A64G U67C], the self-cleavage turned out to be 0.1.
On to UAUCAGGGGGCCACAGCAGAAGCGUUCUCGUCGCAGCCCCUGUCAGAUUCUGGUGAAUAUGCGUAUUCUGCUGUAUAUCUC [A3U A28U C59A A64U], for which the self-cleavage amounted to 0.16.
For UAUCAGGGGGCCACAGCAGUAGCGUUCACGUCUCAGCUCCUGUCAGAUUCUGGUGAAUCUGCGAAUUCCGCUGUGUAUCCC [A3U A20U G33U C38U U69C A75G U80C], the self-cleavage worked out at 0.08.
As for UAUCAGGGGGCCACAGCAGGAGCGUUCACGUCGCAGCCCCUGUCCGAUUCUGGUGAAUCUGCGAAUUCUGCUGUAUAUCUC [A3U A20G A45C], the self-cleavage was 0.45.
To UAUCAGGGGGCCACAGCAGAAGCGUUCCCGUCGCGGCCACUGUCAGAUUCCGGUGAAUCUGCGAAUUCUGCUGUAUAUCUC [A3U A28C A35G C39A U51C] belongs 0.35.
As to UAUCAGGGGGCCACAGCAGGGGCGUUCACGUCGCAGCCCCUGUCAGAUUCUGGUGAAUCUGCGAAUUCUGCUGUAUAUCUC [A3U A20G A21G], the self-cleavage was 0.64.
The figure for UAUCAGGGGGCCACAGCAGAAGCGUUCACGUCGCAGCCCCUGUCAGAUUCUGGUGAAUCUGCGAGUUCUGCUCUAUAUCUC [A3U A65G G73C] is 0.8; for UAUCAGGGGGCCACAGCAGAAGCGUUCACGUCGCAGCCCCUGUCAGAUUCUGGUGUAUCUGCGAAUUCCGCCGUAUAUCUC [A3U A56U U69C U72C] it is 0.43.
The figure for UAUCAGGGGGACACUGCAGAAACGUUCACGUCGCAGCCCCUGUCAGAUUCUGGUGAAUCUGCGGAUUCUGCUGUAUAUCUC [A3U C11A A15U G22A A64G] is 0.2; for UAUCAGGGGGCCACAGCAGAAGCGUUCACGUCGCAGCCCCUGUCAGAUUCUGGUGAAUCUGCGUAUUCUGCUGGAUAUCUC [A3U A64U U74G] it is 0.32; for UAUCAGGGGGCCACAGCAGGAGCGUUCACGUCGCAGCCCCAGUCAGAUUCUGGUGAAUCUGCGAAUUCUGCUGUAUAUCUC [A3U A20G U41A] it is 0.33.
As for UAUCAGGGGGACACAGCAGAAGCGUUCACGUCGCAGCCCCUGUCAGAUUCUGGAGAAUCUGCGAAUUCCGCUGUAUAUCUC [A3U C11A U54A U69C], the self-cleavage was found to be 0.21.
Regarding UAUCAGGGGGCCACAGCGGAAGCGUCCACGUCGCAGCCCCCGCCAGAUUCUGGUGAAUCUGCGGAUACUGCUGUAUAUCUC [A3U A18G U26C U41C U43C A64G U67A], the self-cleavage amounted to 0.05.
The figure for UAUCAGGGGGCCACAGCUGAAGCGUUCACGUCGCAGCCCCUGUCAGAUUCCGGUGGAUCUGCGAAUUCUGCUGUAUAUCUC [A3U A18U U51C A56G] is 0.39; for UAUCAGGGGGCCACAGCAGAAGCGUUCUCGUCGCAGCCCCUAUCAGAUUCUGGUGAAUCUGCGAAUUCUGCUGUAUAUCUC [A3U A28U G42A] it is 0.64; for UAUCAGGGGGCCACAGCGGAAGCGCUCACGUCGCAGCCCCUGUCAGUUUCUGGCGAAUCUGCGAAUUCUGCUGUAUAUCUC [A3U A18G U25C A47U U54C] it is 0.2.
To UAUCAGGGGGCCACAGCAGAAGCGUUCACGUCGCAGCCCCUGUCAGAUUCUGGUGAAUCUGCGAAUUCUGCUGUAUGCCUC [A3U A77G U78C] belongs 0.71.
Turning to UAUUAGGGGGCCACAGCAGAAGCGCUCACGUCGCAGCCCCUGUCAGAUUCUGGUGAGUCUGCGAAUUCUGCUGUUUAUCUC [A3U C4U U25C A57G A75U], the self-cleavage worked out at 0.53.
To UAUCAGGGGGCCACAGCAGUAGCGUUCUCGUCGCAGCCCCUGUCAGAUUCUGGUGAAUCUGCGGAUUCUGCUGUAUAUCUC [A3U A20U A28U A64G] belongs 0.44; to UAUCAGGGGGCCACAGCAGAAGCGUUCGCGUCGCAGCCUCUGUCAGUUUCUGGUGAAUCUGCGAAUUCUGCUGUAUAUCUC [A3U A28G C39U A47U], 0.08.
As for UAUCAGGGGGCCACAGCAGAGGCGUUCACGUCGCAGCCCCUGUCAGAUUCUGGUGAAUCUGCGGAUUCUGCUGUAUAUCUC [A3U A21G A64G], the self-cleavage came to 0.58.
Regarding UAUCAGGGGGCCACAGCGGAAGCGUUCACGUCGCAGCCCCUGUCAGAUUCUGGUGAAUCUGCGAAUCCUGCAGUAUACCUC [A3U A18G U67C U72A U78C], the self-cleavage worked out at 0.13.
For the variant UAUCAGGGGGCCACAGCAGAAGCGUUCACGUCGCAGCCCCUGUCAGGUUCUGGUGAGACUGCGAAUUCUGCUGUAUAUCUC [A3U A47G A57G U58A], the self-cleavage was 0.52.
In the case of UAUCAGGGGGCCACAGCAGUAGCGUUCACGUCGCAGCCCCUGUCAGAUUCUGGUGAAUCCGCGAAUUCUGCUGCAUAUCUC [A3U A20U U60C U74C], the self-cleavage came to 0.41.
On to UAUCAGGGGGCCACAGCAGAAGCGUUCACGUCGCGGCCCCUGUCAGAUUCUGGUGAAUCUGCGAAUACUGCUGUAUAUCUC [A3U A35G U67A], for which the self-cleavage is 1.18.
In the case of UAUAAGGGGGCCGCAGAAGAAGCGUUCACGUCGCAGCCCCUGACAGAUUCUGGUGAAUCUGCGAAUUCUGCUGUAUAUCAC [A3U C4A A13G C17A U43A U80A], the self-cleavage turned out to be 0.6.
Turning to UAUCAGGGGGCCACAGCGGCAGCGUUCACGUCGUGGCCCCUGUCAGAUUCUGGUGAAUCUGCGGAUUCUGCUGUAUAUCAC [A3U A18G A20C C34U A35G A64G U80A], the self-cleavage was 0.15.
Take UAUCAGGGGGCCACAGCAGAAGCGUUCGCGUCGCAGCCCCUGUCAGAUUCCGGUGAAUCCGCGAAUUCUGCUGUAUAUCUC [A3U A28G U51C U60C]: the self-cleavage turned out to be 0.07.
To UAUCAGGGGGCCACAGCGGAAGCGUUCACGUCGCAGCCCCUGCCAGAUUCUGGUGAAUCUGCGAAUUCUGCUGUAUACCUC [A3U A18G U43C U78C] belongs 0.4; to UAUCAGGGGGCCACAGCAGAAGCGUUCACGUCGCAGCCCCUGUCAGAUUCUGGUGAGUCUGCGAAUUCCGCCGUAUAUCCC [A3U A57G U69C U72C U80C], 0.41.
As to UAUCAGGGGGCCACAGCAGAAGCGUUCACGUCGCUGCCCCUGUCAGAUUCUGGUGAAUCUGCGUAUUCUGCUGUAUAUCUC [A3U A35U A64U], the self-cleavage amounted to 0.33.

The values above are taken from the RNAGym collection of RNA variant scans (doi:10.1093/nar/gkz1192).
